66 compounds from PubChem BioAssay AID485344 (National Center for Advancing Translational Sciences (NCATS), 2010) can be followed below.

Usually inhibition stands for the change of the read-out against control, counted positive when it falls.

Molecules are shown by their SMILES. Screen size: about 340,000 compounds; about 6,900 (2%) were called active. Cut-off read from the data, not from the text of the source: active = inhibition above about 30%; inactive = below that, where a call was filed. This is a selection; strong and weak results do not stand in their true shares. The source gives no active or inactive call for entries shown without one. A structure can be active in one record and inactive in another.

Sequence of UniProt P14416 (P14416 whole entry, looked up): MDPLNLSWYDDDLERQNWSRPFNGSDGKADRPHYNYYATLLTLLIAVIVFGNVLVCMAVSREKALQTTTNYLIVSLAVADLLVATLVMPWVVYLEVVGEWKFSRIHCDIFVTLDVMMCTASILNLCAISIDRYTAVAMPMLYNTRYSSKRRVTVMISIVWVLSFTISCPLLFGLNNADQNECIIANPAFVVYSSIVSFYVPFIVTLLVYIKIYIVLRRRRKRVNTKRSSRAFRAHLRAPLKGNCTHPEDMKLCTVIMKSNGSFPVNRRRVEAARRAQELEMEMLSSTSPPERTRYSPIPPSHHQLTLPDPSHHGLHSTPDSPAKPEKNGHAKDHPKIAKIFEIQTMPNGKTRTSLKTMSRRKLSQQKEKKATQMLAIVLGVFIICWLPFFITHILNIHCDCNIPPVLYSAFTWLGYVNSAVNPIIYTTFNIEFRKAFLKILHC

The target of the test is D(2) dopamine receptor (Homo sapiens) (UniProt P14416). As to the kind of experiment: HTS Assay for Allosteric Antagonists of the Human D2 Dopamine Receptor: Primary Screen for Antagonists. Note: 0% is about no effect. The conditions noted are these: HEK293 TREx D2 cells, calcium flux, dopamine EC80; at 10 µM; stronger effect = higher value. An excerpt:
NIH Chemical Genomics Center [NCGC] NIH Molecular Libraries Probe Centers Network [MLPCN] MLPCN Grant: NS064831-01 Assay Submitter (PI): David Sibley Dopamine receptors (DARs) are involved in the etiology and/or therapy of a number of neuropsychiatric and endocrine disorders. For instance, all receptor-based antiparkinsonian drugs work via stimulating the D2 DAR subtype whereas all FDA-approved antipsychotic agents are antagonists of this receptor. […] There are three different types of allosteric modulators that we are seeking, two of which will stimulate or augment receptor signaling, allosteric agonists and potentiators, while the third, allosteric antagonists, will attenuate receptor signaling. The present primary screening assay measures compound antagonism after an EC80 addition of dopamine by tracking calcium flux in a […], inducible Hek293 Trex D2 cell line.
Freshly passaged cells are plated in 1536 well black, clear bottom plates at a density of 4000 cells/well in 3 ul of complete media containing 1x tetracycline inducer. After an overnight incubation at 30 C in 5% CO2, cells are loaded with 2 ul of the no wash Calcium Assay Kit (ABD Bioquest) and incubated at room temperature for 30 to 90 minutes. Agonist read: A 10 cycle (1 second/cycle) baseline measurement is taken and then the FDSS online 1536 pintool delivers 23 nl of compound library (as well as dopamine controls) to the plate. The plate is measured for kinetically at 1 cycle/sec for 180 seconds. Following the 180 second read, 1 ul of an EC80 (negative modulation assay) is delivered by an onboard pipette head. Measurements are taken kinetically for an additional 180 seconds.
(In general: Calcium assays in cells follow changes in intracellular calcium, usually with a dye or a luminescent sensor.)
On to `c1ccc(CNCCc2c[nH]c3ccccc23)cc1`, for which the inhibition was active: 60.5%.
With `Cn1c(O)c(C=Nc2ccc(F)cc2)c(=O)[nH]c1=O`, the inhibition was active: 35.3%.
Then `O=S1(=O)N(Cc2ccccc2Cl)CCCN1Cc1ccccc1Cl`, with -2.03%; and `COc1ccc(NC(=O)CCc2nc(C3=CCN(Cc4cccc(Cl)c4)CC3)no2)c(OC)c1`, with 23.6%.
For the compound `O=C(Nc1ccc2c(c1)OCO2)c1cccn(Cc2cccc([N+](=O)[O-])c2)c1=O`, the inhibition was -18.2%.
In the case of `CCn1cc(C(=O)O)c(=O)c2ccc(C)nc21`, the inhibition is active: 40.7%.
The same measure for `Cc1ccccc1OCC(=O)N1CCN(CCc2ccccn2)CC1`: 13.3%; for `CC1(C)OC(c2ccccc2)=C/C(=C/C=C2C(=O)NC(=S)NC2=O)O1`: active: 63%.
`C[C@H]1CCC[C@H](O)CCCCCc2cc(O)cc(O)c2C(=O)O1`: the inhibition is active: 32.4%.
With `COc1cccc(C2SCC(=O)Nc3c2c(C)nn3-c2ccc(C)c(Cl)c2)c1OC` (stereo unspecified), the inhibition is -16.5%.
The same measure for `O=c1c2ccccc2nc(/C=C/c2ccccc2F)n1-c1cccc(O)c1`: -1.84%.
Regarding `COc1ccccc1CN1CCN(Cc2ccc(Cl)cc2)CC1`, the inhibition is active: 76.4%.
As for `Cc1cccc(-n2nc(C)c3c2NC(=O)CSC3c2ccccc2Cl)c1` (stereo unspecified), the inhibition is -2.37%.
Then `Cc1cc(NCCN)nc2ccccc12`, with active: 57.8%; and `CC(C)Cc1nc2cccnc2n1C1CCNCC1`, with 6.58%.
The same measure for `CCOc1ccc(CN(CCc2ccc3c(c2)OCO3)Cc2ccc(C)cc2)cc1`: -4.3%.
As to `Cc1ccc(NC(=O)Cn2cc(C(=O)c3ccccc3)c3ccccc32)c(C)c1`, the inhibition was -2.6%.
Then `OC(CCNCCc1c[nH]c2ccccc12)C(F)(F)Cl` (stereo unspecified), with active: 52.7%; and `COc1ccccc1N1CCN(Cc2ccc(Cl)cc2Cl)CC1`, with active: 34.7%.
The same measure for `COc1ccc(-n2c(/C=C/c3cccc(F)c3)nc3ccccc3c2=O)cc1Cl`: 11.5%.
The same measure for `Cc1cccc(CN2C(=O)CN=C(c3ccccc3)c3ccccc32)c1`: -9.61%; for `CCN1CC=C(c2c[nH]c3ccccc23)CC1`: active: 82.7%; for `Cc1ccc(-c2cc(-c3ccc(C)cc3)[n+](-c3ccccc3)c(-c3ccc(C)cc3)c2)cc1`: active: 48.9%.
Turning to `CCCCC12CN3CC(C)(CN(C1)C3c1ccccn1)C2=O` (stereo unspecified), the inhibition was determined as 2.66%.
The same measure for `Cc1ccc(-c2nc(CN3C(=O)CN=C(c4ccccc4)c4ccccc43)c(C)o2)cc1`: 9.17%.
Then `CCN(CC)C(=O)c1ccc(NC(=O)c2ccc(-c3nn(C)c(=O)c4ccccc34)cc2)cc1`, with -5.35%; and `CN1/C(=C\C=C2C(=O)NC(=S)NC2=O)C(C)(C)c2ccccc21`, with active: 30.6%; and `Cc1ccc(Cn2cccc(C(=O)Nc3ccc4c(c3)OCCO4)c2=O)cc1`, with 13%.
The same measure for `Clc1cccc(N2CCNCC2)c1Cl`: active: 35%.
Consider `COc1ccccc1C1SCC(=O)Nc2c1c(C)nn2-c1cccc(C)c1` (stereo unspecified), for which the inhibition came to 18.4%.
The same measure for `CCC1(C)OC(c2ccccc2)=C/C(=C/C=C2C(=O)NC(=O)NC2=O)O1` (stereo unspecified): active: 43.3%.
`Cc1ccc(CN2C3CCCC2CC(NC(=S)NCc2ccccc2)C3)cc1` (stereo unspecified): the inhibition is active: 104%.
Then `CCCC12CN3CC(C)(CN(C1)C3c1c(C)[nH]c(=O)[nH]c1=O)C2=O` (stereo unspecified), with 12.9%; and `CCCC1=Nc2cc(C(=O)NCCCN(CC)CC)ccc2Sc2ccccc21`, with -6.29%.
Turning to `COc1ccc(Br)cc1C1SCC(=O)Nc2c1c(C)nn2-c1ccccc1C` (stereo unspecified), the inhibition was 24.3%.
The same measure for `Cc1ccc(-c2nn3c(=O)cc(CN4CCN(C(=O)COc5ccc(C)c(C)c5)CC4)nc3s2)cc1`: -2.79%.
Then `Cc1ccc(Cn2cccc(C(=O)Nc3cc(C)on3)c2=O)cc1`, with -0.476%; and `Cc1c(C(c2ccc(Br)cc2)c2c(O)c3ccccc3oc2=O)c(=O)n(-c2ccccc2)n1C` (stereo unspecified), with -20.4%; and `COC(=O)C1=C(c2ccccc2OCc2ccccc2)C[C@@H]2CC[C@H]1N2C(=O)NC1CCN(Cc2ccccc2)CC1`, with active: 59.5%.
The same measure for `CN(C)c1ccc(NC(=O)c2sc3nc4c(cc3c2N)N2CCC4CC2)cc1`: -3.7%.
`COc1ccc(OCC(=O)N2CCN(CCc3ccncc3)CC2)cc1`: the inhibition was -0.576%.
For the compound `NNC(N)=O`, the inhibition is active: 30.5%.
With `Cc1ccccc1-n1c(/C=C/c2c(C)[nH]c3ccccc23)nc2ccccc2c1=O`, the inhibition was -3.33%.
The same measure for `CN1CCN(c2nc(N)c(Br)c(Cl)n2)CC1`: active: 68.6%.
As to `COc1ccccc1N1CCN(Cc2ccccc2F)CC1`, the inhibition was active: 80.6%.
The same measure for `Cc1ccccc1-n1nc(C)c2c1NC(=O)CSC2c1ccc(Cl)cc1` (stereo unspecified): 6.67%; for `Cc1ccc(C(C)C)c(OCC(=O)N2CCN(CCc3ccncc3)CC2)c1`: -14.1%.
In the case of `NCCc1ccc(O)cc1`, the inhibition was active: 46.6%.
As for `COCCCn1c(N)c(C(=O)OC(C)COC)c2nc3ccccc3nc21` (stereo unspecified), the inhibition was active: 42.5%.
As for `O=C1NC(=O)N(c2ccccc2F)C(=O)/C1=C/c1ccc(Sc2nc3ccccc3[nH]2)o1`, the inhibition is active: 44%.
Then `Cc1ccc(C(=O)Nc2ccccc2)cc1S(=O)(=O)N1CCCC1`, with 7.35%; and `CC1(C)Cc2c(sc3c2C(=O)NC(c2cccnc2)N3)CO1` (stereo unspecified), with active: 69.5%.
As for `COC(=O)C1C=C2c3cccc4[nH]cc(c34)CC2N(C)C1` (stereo unspecified), the inhibition is active: 61.9%.
Consider `Cc1ccc(CN2C3CCCC2CC(NC(=O)Nc2cccc(F)c2)C3)cc1` (stereo unspecified), for which the inhibition was active: 75%.
Then `CCOc1ccc(CN(CCc2ccc3c(c2)OCO3)Cc2ccc(OC)c(Br)c2)cc1`, with -10.1%; and `CCOc1ccc2nc(NC(=O)c3cccn(Cc4ccccc4Cl)c3=O)sc2c1`, with 11.4%.
Regarding `Cc1ccccc1CN1C(=O)C(C)N=C(c2ccccc2)c2ccccc21` (stereo unspecified), the inhibition was -4.43%.
Then `Fc1ccc(C(OCCN2CCCC2)c2ccc(Br)cc2)cc1` (stereo unspecified), with active: 47%; and `Cc1ccsc1C(=O)C1CCCN(Cc2cc(C(C)C)n[nH]2)C1` (stereo unspecified), with active: 80.4%.
Then `Cc1ccc(OCC(=O)Nc2ccc(Cl)cc2C(=O)c2ccccc2)cc1C`, with 1.65%; and `Clc1ccccc1CN1CCN(c2ccccc2)CC1`, with active: 68.2%.
The same measure for `O=C(CNC(=O)c1ccc(Cl)cc1)Nc1ccc(Br)cc1C(=O)c1ccccc1`: active: 34.4%; for `CNC(C)Cc1ccccc1Sc1ccc(O)cc1` (stereo unspecified): active: 67.4%.
For `COc1cccc(-c2nn3c(=O)cc(CN4CCN(C(=O)COc5ccccc5C)CC4)nc3s2)c1`, the inhibition is -8.11%.
Then `C#CC1(O)CCC2C3CCC4=C/C(=N/OCC(=O)NCC(=O)NC(C(=O)O)C(C)C)CC[C@]4(C)C3CC[C@@]21C` (stereo partly specified), with active: 60.4%.
As for `CC(C)NC(C)C(=O)c1ccc2ccccc2c1` (stereo unspecified), the inhibition is active: 46%.
